This is one part of the list. Most values come without repeats; read them as rough.
Assays:
Experiment in all cases: cell count relative to DMSO control; melanoma cells; higher = more viable cells
Details in all cases: library dose: standard library concentration; 72 h
G361 = test system: G361
IPC-298 = test system: IPC-298
IST-MEL1 = test system: IST-MEL1
LOXIMVI = test system: LOXIMVI
MEL-HO = test system: MEL-HO
MeWo = test system: MeWo
RPMI7951 = test system: RPMI7951
RVH-421 = test system: RVH-421
SkMel28 = test system: SkMel28
SkMel2 = test system: SkMel2
SkMel30 = test system: SkMel30
SkMel5 = test system: SkMel5
UACC257 = test system: UACC257
UACC62 = test system: UACC62
WM115 = test system: WM115
WM1716 = test system: WM1716
WM1745 = test system: WM1745
WM3526 = test system: WM3526
LB2518-MEL = test system: LB2518-MEL
MZ2-MEL = test system: MZ2-MEL
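Also: cells treated in 1,536-well plates, then fixed and DAPI-stained, with nuclei counted from automated high-throughput microscope images.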

COc1cc2c(Oc3ccc4[nH]c(C)cc4c3F)ncnc2cc1OCCCN1CCCC1 [cediranib] + O=c1cc(-c2cccc3c2Sc2ccccc2S3)oc(N2CCOCC2)c1 [KU55933] (first compound 2 µM, partner dose 5 µM)
cell count (G361): 74.2% | cell count (IPC-298): 89.6% | cell count (IST-MEL1): 97.1% | cell count (LOXIMVI): 96.6% | cell count (MEL-HO): 88.6% | cell count (MeWo): 81.1% | cell count (RPMI7951): 62.4% | cell count (RVH-421): 75.5% | cell count (SkMel28): 73.8% | cell count (SkMel2): 98.9% | cell count (SkMel30): 107% | cell count (SkMel5): 83.6% | cell count (UACC257): 107% | cell count (UACC62): 76.1% | cell count (WM115): 97.5% | cell count (WM1716): 89.7% | cell count (WM1745): 85.2% | cell count (WM3526): 72.6%

CCCCCCCCc1ccc(CCC(N)(CO)CO)cc1 [fingolimod] + COC(=O)c1sccc1S(=O)(=O)Nc1ccc(Nc2ccccc2)cc1OC [GSK0660] (first compound 10 µM, partner dose 5 µM)
cell count (G361): 0.822% | cell count (IPC-298): 45.6% | cell count (IST-MEL1): 8.8% | cell count (LB2518-MEL): 0.597% | cell count (LOXIMVI): 61.8% | cell count (MEL-HO): 4.7% | cell count (MZ2-MEL): 1.6% | cell count (MeWo): 42.8% | cell count (RPMI7951): 5.83% | cell count (RVH-421): 11.1% | cell count (SkMel2): 0.216% | cell count (SkMel30): 6.21% | cell count (SkMel5): 79.8% | cell count (UACC257): 55.4% | cell count (UACC62): 22.4% | cell count (WM115): 11.5% | cell count (WM1716): 46.7% | cell count (WM3526): 11.4%

CCCCCCCCc1ccc(CCC(N)(CO)CO)cc1 [fingolimod] + COc1cc2ncnc(Nc3ccc(Oc4ccccc4)cc3)c2cc1OC [SrcI1] (first compound 10 µM, partner dose 10 µM)
cell count (G361): 0.625% | cell count (IPC-298): 6.36% | cell count (IST-MEL1): 3.7% | cell count (LB2518-MEL): 0.219% | cell count (LOXIMVI): 23.6% | cell count (MEL-HO): 12.2% | cell count (MZ2-MEL): 2.04% | cell count (MeWo): 9.76% | cell count (RPMI7951): 2.35% | cell count (RVH-421): 7.85% | cell count (SkMel2): 0.567% | cell count (SkMel30): 9.62% | cell count (SkMel5): 47.3% | cell count (UACC257): 75.9% | cell count (UACC62): 13.5% | cell count (WM115): 6.29% | cell count (WM1716): 50.8% | cell count (WM3526): 21.1%

NC(=O)c1ccc(N(C(N)=O)c2c(F)cccc2F)nc1-c1ccc(F)cc1F + CO[C@H]1C[C@@H]2CC[C@@H](C)[C@@](O)(O2)C(=O)C(=O)N2CCCC[C@H]2C(=O)O[C@H]([C@H](C)C[C@@H]2CC[C@@H](OCCO)[C@H](OC)C2)CC(=O)[C@H](C)/C=C(\C)[C@@H](O)[C@@H](OC)C(=O)[C@H](C)C[C@H](C)/C=C/C=C/C=C/1C [everolimus] (first compound 2 µM, partner dose 0.1 µM)
cell count (G361): 77.3% | cell count (IPC-298): 63.2% | cell count (IST-MEL1): 82.8% | cell count (LOXIMVI): 42.3% | cell count (MEL-HO): 81.8% | cell count (MeWo): 72.8% | cell count (RPMI7951): 78.4% | cell count (RVH-421): 82.5% | cell count (SkMel28): 67.5% | cell count (SkMel2): 76.6% | cell count (SkMel30): 70.6% | cell count (SkMel5): 53.8% | cell count (UACC257): 96.9% | cell count (UACC62): 62.7% | cell count (WM115): 67.4% | cell count (WM1716): 77.9% | cell count (WM1745): 76% | cell count (WM3526): 67.6%

NC(=O)c1ccc(N(C(N)=O)c2c(F)cccc2F)nc1-c1ccc(F)cc1F + Oc1nc(-c2ccc(C(F)(F)F)cc2)nc2c1CSCC2 [XAV939] (first compound 2 µM, partner dose 10 µM)
cell count (G361): 96.2% | cell count (IPC-298): 89.5% | cell count (IST-MEL1): 107% | cell count (LOXIMVI): 116% | cell count (MEL-HO): 85.6% | cell count (MeWo): 89.2% | cell count (RPMI7951): 81% | cell count (RVH-421): 93.6% | cell count (SkMel28): 82.9% | cell count (SkMel2): 108% | cell count (SkMel30): 109% | cell count (SkMel5): 63.2% | cell count (UACC257): 81.2% | cell count (UACC62): 70.2% | cell count (WM115): 80.7% | cell count (WM1716): 67.2% | cell count (WM3526): 109%

CN(NC(=O)CC(=O)NN(C)C(=S)c1ccccc1)C(=S)c1ccccc1 + c1cc(-c2cnn3cc(-c4ccc(OCCN5CCCCC5)cc4)cnc23)ccn1 [Dorsomorphin] (first compound 0.03 µM, partner dose 2 µM)
cell count (G361): 25.5% | cell count (IPC-298): 68.5% | cell count (IST-MEL1): 36.1% | cell count (LOXIMVI): 80.7% | cell count (MEL-HO): 77.5% | cell count (MeWo): 22.5% | cell count (RPMI7951): 57.5% | cell count (RVH-421): 86.5% | cell count (SkMel28): 12.6% | cell count (SkMel30): 99.2% | cell count (SkMel5): 55.3% | cell count (UACC257): 86.6% | cell count (UACC62): 48.9% | cell count (WM115): 21.5% | cell count (WM1716): 71% | cell count (WM1745): 29.3% | cell count (WM3526): 78.1%

CCCCCCCCc1ccc(CCC(N)(CO)CO)cc1 [fingolimod] + O=C(O)C(=O)Nc1sc2c(c1C(=O)O)CCNC2 [TCS401] (first compound 10 µM, partner dose 8.33333 µM)
cell count (G361): 0.76% | cell count (IPC-298): 53.3% | cell count (IST-MEL1): 10.9% | cell count (LB2518-MEL): 0.181% | cell count (LOXIMVI): 46% | cell count (MEL-HO): 10.8% | cell count (MZ2-MEL): 43.5% | cell count (MeWo): 28.8% | cell count (RPMI7951): 4.3% | cell count (RVH-421): 2.97% | cell count (SkMel2): 0.31% | cell count (SkMel30): 12.1% | cell count (SkMel5): 56.7% | cell count (UACC257): 73.4% | cell count (UACC62): 22.4% | cell count (WM115): 18.5% | cell count (WM1716): 26.6% | cell count (WM3526): 60%

Cc1ccc(NC(=O)c2cccc(N(C)C)c2)cc1NC(=O)c1ccc(O)cc1 + Oc1nc(-c2ccc(C(F)(F)F)cc2)nc2c1CSCC2 [XAV939] (first compound 10 µM, partner dose 10 µM)
cell count (G361): 101% | cell count (IPC-298): 92% | cell count (IST-MEL1): 92.7% | cell count (LOXIMVI): 107% | cell count (MEL-HO): 81.5% | cell count (MeWo): 74.5% | cell count (RPMI7951): 80.3% | cell count (RVH-421): 88.3% | cell count (SkMel28): 77.2% | cell count (SkMel2): 111% | cell count (SkMel30): 99.1% | cell count (SkMel5): 76.7% | cell count (UACC257): 106% | cell count (UACC62): 110% | cell count (WM115): 108% | cell count (WM1716): 87.2% | cell count (WM1745): 73.9% | cell count (WM3526): 101%

Cc1ccc(NC(=O)c2cccc(N(C)C)c2)cc1NC(=O)c1ccc(O)cc1 + Oc1cc(-c2nc(-c3ccccc3)[nH]c2-c2ccncc2)ccc1Cl [L779450] (first compound 10 µM, partner dose 1 µM)
cell count (G361): 70.3% | cell count (IPC-298): 92.8% | cell count (IST-MEL1): 81.7% | cell count (LOXIMVI): 83% | cell count (MEL-HO): 76% | cell count (MeWo): 91.1% | cell count (RPMI7951): 77.2% | cell count (RVH-421): 63.1% | cell count (SkMel28): 49.8% | cell count (SkMel30): 93.1% | cell count (SkMel5): 82.5% | cell count (UACC257): 108% | cell count (UACC62): 64.9% | cell count (WM115): 49.4% | cell count (WM1716): 83.1% | cell count (WM1745): 56.8% | cell count (WM3526): 59.1%

CCCCCCCCc1ccc(CCC(N)(CO)CO)cc1 [fingolimod] + O=C1NC(=O)/C(=C/c2ccc(-c3ccc(F)cc3O)o2)S1 [AS252424] (first compound 10 µM, partner dose 5 µM)
cell count (G361): 0.613% | cell count (IPC-298): 12.6% | cell count (IST-MEL1): 5.02% | cell count (LB2518-MEL): 0.463% | cell count (LOXIMVI): 8.22% | cell count (MEL-HO): 1.59% | cell count (MZ2-MEL): 0.731% | cell count (MeWo): 4.92% | cell count (RPMI7951): 3.39% | cell count (RVH-421): 1.84% | cell count (SkMel2): 0.0941% | cell count (SkMel30): 8.38% | cell count (SkMel5): 58.9% | cell count (UACC257): 67.6% | cell count (UACC62): 12.9% | cell count (WM115): 6.83% | cell count (WM1716): 31.5% | cell count (WM3526): 31.5%

Reference: the supplement of paper PMC4604168 (melanoma cell lines)
